Drawing on the supplement of paper PMC4604168 (melanoma cell lines), this text covers cell count for 23 compounds.

The list shows a part of the results. Many values rest on one well or one pass, so single values are uncertain.

Assay in all cases: cell count relative to DMSO control; melanoma cells; higher = more viable cells
Common to all, as to details: library dose: low library concentration; 72 h

For test [1], the system named is WM115.
For test [2], the system named is WM1716.
Test [3] concerns WM1745.
Test [4] relates to WM3526.
Test [5] deals with WM3619.
For test [6], the system named is WM451Lu.
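Also: cell number obtained by counting DAPI-stained nuclei in high-throughput microscope images with image analysis software, screen run in 1,536-well plates.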

Consider `C[C@@H](Oc1cc(-c2cnn(C3CCNCC3)c2)cnc1N)c1c(Cl)ccc(F)c1Cl` [Crizotinib] + Nc1ccn([C@@H]2O[C@H](CO)[C@@H](O)C2(F)F)c(=O)n1 [gemcitabine] (first compound 0.2 µM, partner dose 0.0004 µM), for which the cell count in test [1] was found to be 115%; in test [2], 106%; in test [3], 94.5%; in test [4], 116%; in test [5] it was 83.6%; in test [6], 81%.

Regarding `C[C@@H](Oc1cc(-c2cnn(C3CCNCC3)c2)cnc1N)c1c(Cl)ccc(F)c1Cl` [Crizotinib] + Clc1ccc(Nc2nnc(Cc3ccncc3)c3ccccc23)cc1 [vatalanib] (first compound 0.2 µM, partner dose 2 µM), the cell count in test [1] came out at 85.3%; in test [2], 102%; in test [3], 87.7%; in test [4], 112%; in test [5], 83.8%; in test [6] it was 81.6%.

For the compound `C[C@@H](Oc1cc(-c2cnn(C3CCNCC3)c2)cnc1N)c1c(Cl)ccc(F)c1Cl` [Crizotinib] + CN(C)S(=O)(=O)c1ccc2c(c1)/C(=C/c1cc3c([nH]1)CCCC3)C(=O)N2 [SU6656] (first compound 0.2 µM, partner dose 0.4 µM), the cell count in test [1] is 73.8%; in test [2], 109%; in test [3], 92.1%; in test [4] it was 92.3%; in test [5], 103%; in test [6], 86.6%.

On to `CS(=O)(=O)CCNCc1ccc(-c2ccc3ncnc(Nc4ccc(OCc5cccc(F)c5)c(Cl)c4)c3c2)o1` [lapatinib] + Cn1cncc1[C@@](N)(c1ccc(Cl)cc1)c1ccc2c(c1)c(-c1cccc(Cl)c1)cc(=O)n2C [tipifarnib] (first compound 0.8 µM, partner dose 0.01 µM), for which the cell count in test [1] was 90.4%; in test [2], 86.4%; in test [3], 107%; in test [4] it was 94.4%; in test [5], 117%; in test [6], 85.9%.

In the case of `C[C@@H](Oc1cc(-c2cnn(C3CCNCC3)c2)cnc1N)c1c(Cl)ccc(F)c1Cl` [Crizotinib] + COc1cc2ncnc(Nc3ccc(Oc4ccccc4)cc3)c2cc1OC [SrcI1] (first compound 0.2 µM, partner dose 2 µM), the cell count in test [1] turned out to be 93.7%; in test [2] it was 124%; in test [3] it was 91.7%; in test [4] it was 97.3%; in test [5] it was 76.9%; in test [6], 113%.

Turning to `CN1CCN(c2ccc3nc(-c4c(N)c5c(F)cccc5[nH]c4=O)[nH]c3c2)CC1` [Dovitinib] + O=C(CCCCCCC(=O)Nc1ccccc1)NO [vorinostat] (first compound 0.1 µM, partner dose 0.08 µM), the cell count in test [1] was determined as 94.7%; in test [2], 115%; in test [3], 93.3%; in test [4], 79.8%; in test [5], 114%; in test [6], 80.9%.

As for `CN1CCN(c2ccc3nc(-c4c(N)c5c(F)cccc5[nH]c4=O)[nH]c3c2)CC1` [Dovitinib] + O=S(=O)(c1ccccc1)N(CC(F)(F)F)c1ccc(C(O)(C(F)(F)F)C(F)(F)F)cc1 [T0901317] (first compound 0.1 µM, partner dose 1.4 µM), the cell count in test [1] amounted to 93.9%; in test [2] it was 104%; in test [3] it was 68.5%; in test [4], 70.4%; in test [5], 108%; in test [6], 105%.

For `C[C@@H](Oc1cc(-c2cnn(C3CCNCC3)c2)cnc1N)c1c(Cl)ccc(F)c1Cl` [Crizotinib] + O=C(O)c1ccc2c(c1)nc(Nc1cccc(Cl)c1)c1ccncc12 [CX4945] (first compound 0.2 µM, partner dose 0.4 µM), the cell count in test [1] is 105%; in test [2], 98.1%; in test [3], 88.2%; in test [4] it was 82.3%; in test [5], 112%; in test [6] it was 89.1%.

For `C[C@@H](Oc1cc(-c2cnn(C3CCNCC3)c2)cnc1N)c1c(Cl)ccc(F)c1Cl` [Crizotinib] + Cn1cncc1[C@@](N)(c1ccc(Cl)cc1)c1ccc2c(c1)c(-c1cccc(Cl)c1)cc(=O)n2C [tipifarnib] (first compound 0.2 µM, partner dose 0.01 µM), the cell count in test [1] was 74%; in test [2], 84.1%; in test [3], 82.4%; in test [4], 76.8%; in test [5], 96.7%; in test [6], 80%.

As to `CS(=O)(=O)CCNCc1ccc(-c2ccc3ncnc(Nc4ccc(OCc5cccc(F)c5)c(Cl)c4)c3c2)o1` [lapatinib] + Cn1cc(/C=C2\C(=O)Nc3cccnc32)c2ccccc21 [GW441756] (first compound 0.8 µM, partner dose 0.4 µM), the cell count in test [1] is 92.8%; in test [2] it was 101%; in test [3] it was 101%; in test [4], 104%; in test [5], 124%; in test [6] it was 106%.

Consider `CN1CCN(c2ccc3nc(-c4c(N)c5c(F)cccc5[nH]c4=O)[nH]c3c2)CC1` [Dovitinib] + O=C(Nc1cccc(Cl)c1)Nc1ncc(CCNc2ncnc3ccsc23)s1 [SNS314] (first compound 0.1 µM, partner dose 0.0008 µM), for which the cell count in test [1] came to 70.4%; in test [2] it was 111%; in test [3], 84.5%; in test [4], 96.1%; in test [5] it was 82%; in test [6], 99.5%.

For `C[C@@H](Oc1cc(-c2cnn(C3CCNCC3)c2)cnc1N)c1c(Cl)ccc(F)c1Cl` [Crizotinib] + Oc1cc(-c2nc(-c3ccccc3)[nH]c2-c2ccncc2)ccc1Cl [L779450] (first compound 0.2 µM, partner dose 0.2 µM), the cell count in test [1] came to 85.1%; in test [2] it was 101%; in test [3], 98.1%; in test [4], 92.2%; in test [5] it was 96.7%; in test [6] it was 95.8%.

For the compound `CN1CCN(c2ccc3nc(-c4c(N)c5c(F)cccc5[nH]c4=O)[nH]c3c2)CC1` [Dovitinib] + O=C(O)c1ccc2c(c1)nc(Nc1cccc(Cl)c1)c1ccncc12 [CX4945] (first compound 0.1 µM, partner dose 0.4 µM), the cell count in test [1] amounted to 99.9%; in test [2] it was 111%; in test [3], 81%; in test [4], 70.3%; in test [5] it was 90.1%; in test [6], 91.9%.

`CNC(=O)c1cc(Oc2ccc(NC(=O)Nc3ccc(Cl)c(C(F)(F)F)c3)cc2)ccn1` [sorafenib] + Cn1cc(/C=C2\C(=O)Nc3cccnc32)c2ccccc21 [GW441756] (first compound 0.4 µM, partner dose 0.4 µM): the cell count was 97.9% in test [1]; 93.1% in test [2]; 100% in test [3]; 112% in test [4]; 115% in test [5]; 101% in test [6].

With `C[C@@H](Oc1cc(-c2cnn(C3CCNCC3)c2)cnc1N)c1c(Cl)ccc(F)c1Cl` [Crizotinib] + COc1ccc(-c2ccc3c(N4CCOCC4)nc(N4C[C@@H](C)O[C@@H](C)C4)nc3n2)cc1CO [KU0063794] (first compound 0.2 µM, partner dose 0.02 µM), the cell count worked out at 106% in test [1]; 95.5% in test [2]; 96.3% in test [3]; 91.9% in test [4]; 89.1% in test [5]; 98.2% in test [6].

Turning to `CN1CCN(c2ccc3nc(-c4c(N)c5c(F)cccc5[nH]c4=O)[nH]c3c2)CC1` [Dovitinib] + CC(C)(C)c1cnc(CSc2cnc(NC(=O)C3CCNCC3)s2)o1 [SNS-032] (first compound 0.1 µM, partner dose 0.01 µM), the cell count in test [1] worked out at 96.1%; in test [2], 99.8%; in test [3], 77.2%; in test [4], 85.8%; in test [5] it was 99.6%; in test [6] it was 90.7%.

For the compound `C[C@@H](Oc1cc(-c2cnn(C3CCNCC3)c2)cnc1N)c1c(Cl)ccc(F)c1Cl` [Crizotinib] + CC(C)(C)c1cnc(CSc2cnc(NC(=O)C3CCNCC3)s2)o1 [SNS-032] (first compound 0.2 µM, partner dose 0.01 µM), the cell count was determined as 103% in test [1]; 81.1% in test [2]; 90% in test [3]; 104% in test [4]; 101% in test [5]; 88.8% in test [6].

Turning to `CS(=O)(=O)CCNCc1ccc(-c2ccc3ncnc(Nc4ccc(OCc5cccc(F)c5)c(Cl)c4)c3c2)o1` [lapatinib] + C=C(c1ccc(C(=O)O)cc1)c1cc2c(cc1C)C(C)(C)CCC2(C)C [Bexarotene] (first compound 0.8 µM, partner dose 2 µM), the cell count in test [1] was found to be 97.9%; in test [2], 93.1%; in test [3], 105%; in test [4], 95.6%; in test [5] it was 100%; in test [6], 92.6%.

Turning to `C=CCNC1=C2C[C@@H](C)C[C@H](OC)[C@H](O)[C@@H](C)/C=C(\C)[C@H](OC(N)=O)[C@@H](OC)/C=C\C=C(/C)C(=O)NC(=CC1=O)C2=O` [Tanespimycin] + C=CCn1c(=O)c2cnc(Nc3ccc(N4CCN(C)CC4)cc3)nc2n1-c1cccc(C(C)(C)O)n1 [MK1775] (first compound 0.002 µM, partner dose 0.02 µM), the cell count in test [1] came out at 83.7%; in test [2], 88.9%; in test [3], 80.6%; in test [4], 67.2%; in test [5], 70.4%; in test [6] it was 96.5%.

Regarding `C=CCNC1=C2C[C@@H](C)C[C@H](OC)[C@H](O)[C@@H](C)/C=C(\C)[C@H](OC(N)=O)[C@@H](OC)/C=C\C=C(/C)C(=O)NC(=CC1=O)C2=O` [Tanespimycin] + COc1ccc(COc2ccc(Cc3cnc(N)nc3N)cc2OC)cc1 [GW2580] (first compound 0.002 µM, partner dose 1 µM), the cell count in test [1] amounted to 98.9%; in test [2], 111%; in test [3] it was 104%; in test [4], 115%; in test [5], 104%; in test [6], 103%.

Consider `C[C@@H](Oc1cc(-c2cnn(C3CCNCC3)c2)cnc1N)c1c(Cl)ccc(F)c1Cl` [Crizotinib] + OCCn1cc(-c2cnc3nnn(Cc4ccc5ncccc5c4)c3n2)cn1 [PF04217903] (first compound 0.2 µM, partner dose 1 µM), for which the cell count was 80% in test [1]; 84.5% in test [2]; 92% in test [3]; 82.8% in test [4]; 113% in test [5]; 95.7% in test [6].

On to `C=CCNC1=C2C[C@@H](C)C[C@H](OC)[C@H](O)[C@@H](C)/C=C(\C)[C@H](OC(N)=O)[C@@H](OC)/C=C\C=C(/C)C(=O)NC(=CC1=O)C2=O` [Tanespimycin] + CN(NC(=O)CC(=O)NN(C)C(=S)c1ccccc1)C(=S)c1ccccc1 [STA4783] (first compound 0.002 µM, partner dose 0.006 µM), for which the cell count in test [1] was 72.4%; in test [2], 77.9%; in test [3], 53.9%; in test [4] it was 104%; in test [5], 65.3%; in test [6], 88.9%.

Turning to `CS(=O)(=O)CCNCc1ccc(-c2ccc3ncnc(Nc4ccc(OCc5cccc(F)c5)c(Cl)c4)c3c2)o1` [lapatinib] + CN(C)S(=O)(=O)c1ccc2c(c1)/C(=C/c1cc3c([nH]1)CCCC3)C(=O)N2 [SU6656] (first compound 0.8 µM, partner dose 0.4 µM), the cell count in test [1] is 79.8%; in test [2], 123%; in test [3], 98.1%; in test [4], 102%; in test [5], 110%; in test [6], 104%.
